Source: PubChem BioAssay AID652104 (National Center for Advancing Translational Sciences (NCATS), 2013)
The whole screen tested about 410,000 compounds, of which about 7,200 (1.8%) were called active. Inconclusive means that the source gave no clear call. Such entries were picked first, then a sample of the others. The call rests on the fitted dose curve; in most records, active means well fitted activation curve with a large enough effect; inconclusive means small, poorly fitted or top-dose-only effect, or another doubt; inactive means no such curve, though single readings can be large or run the other way. Potencies of inconclusive entries are left out as doubtful fits.

Assay: qHTS of TDP-43 Inhibitors; further: nearly all actives have a fitted effect of over 50% in size; on growth rescue (activation): % of control where 0% means no effect
Conditions: TDP-43 expressing yeast growth rescue, BacTiter-Glo, 24 h; growth rescue (activation): at 46.1 µM (top of the series) unless noted
In short: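 Yeast cells expressing TDP-43 under galactose induction are exposed to compounds for 24 hr at 30 deg C. BacTiter-Glo luminescence measures growth, so protective compounds score as activators.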
Potency means the concentration at half of the fitted maximal effect; tags describe the fitted curve by direction and shape.

Compound	Potency	growth rescue (activation)
COc1ccc(CCNC(=O)C(=O)NCC2CCCN2S(=O)(=O)c2cc(C)ccc2C)cc1 (stereo unspecified)	inconclusive [activator, single point]	–
CCC(CC)C(=O)Nc1nc2c(s1)CC(C)CC2 (stereo unspecified)	inconclusive [activator, full curve, poor fit]	–
O=C(COCc1cc(-c2ccc3c(c2)OCO3)on1)N1CCN(c2ccccc2)CC1	inconclusive [activator, partial curve]	–
COc1ccccc1N(C)S(=O)(=O)c1ccc(C(=O)Nc2ccc(C)cc2C)cc1	inactive	–
O=C(Nc1ccccc1N1CCN(C(=O)c2ccc(Cl)cc2)CC1)c1cccc(F)c1	inconclusive [activator, single point]	–
Cc1cc(N)n2ncc(-c3cccc(Br)c3)c2n1	inconclusive [activator, single point]	–
O=C(CN1CCN(c2cccc(Cl)c2)CC1)Nc1ccc([N+](=O)[O-])cc1C(=O)Nc1ccccc1F	inconclusive [activator, partial curve]	–
COc1ccc(C)cc1NC(=O)CN1C(=O)c2cccc3cccc1c23	inconclusive [activator, full curve, poor fit]	–
Cc1cc(C)c2c(n1)sc1c(O)cc(=O)[nH]c12	inconclusive [activator, single point]	–
COc1ccccc1C(=O)Nc1nnc(-c2ccc3c(c2)CCCC3)o1	active: 17.8 µM	–
O=S(=O)(NCC1OCCc2ccccc21)c1ccccc1 (stereo unspecified)	active: 10 µM	–
Cc1ccc(C(C)C)c(OCCSc2nc3ccccc3n2CC(=O)O)c1	inactive	–
C[C@@H]1CN([C@@H](C)CO)C(=O)CCCn2nncc2CO[C@@H]1CN(C)C(=O)Nc1ccc(N2CCCCC2)cc1	inactive	–
COc1ccc(-n2ncc3c2CC(C)(C)CC3NC(=O)c2ccnn2C)cc1 (stereo unspecified)	inconclusive [activator, partial curve]	–
COc1ccc(-c2noc(C3CC(=O)N(c4ccccc4)C3)n2)c(OC)c1 (stereo unspecified)	inconclusive [activator, partial curve]	–
COc1ccc(OC)c(CCNC(=O)c2c3c(nc4ccccc24)C(=O)N(C2CCCCC2)C3)c1	inactive	–
O=C(c1ccccc1)c1cnc(Nc2ccccc2Cl)s1	inconclusive [activator, single point]	–
COc1ccc(-c2cn3nc(SCC(=O)Nc4ccc(C)c(Cl)c4)ccc3n2)cc1	–	inactive: 13.8% [at 9.22 µM]
Nc1c(Cl)cnc(C(Cl)(Cl)Cl)c1Cl	active: 12.6 µM	–
Cc1ccc(NC(c2ccc(Cl)cc2)c2nnc(-c3cccc(F)c3)o2)cc1C (stereo unspecified)	inactive	–
Cc1ccc(-c2cn(-c3ccccc3F)c(=S)[nH]2)cc1	inactive	–
O=C(NC(=S)Nc1ccccc1N1CCOCC1)c1ccccc1F	inconclusive [activator, single point]	–
O=c1c(OCc2ccccc2)cccn1Cc1ccccc1	inconclusive [activator, single point]	–
CC1Cc2ccccc2N1Cc1cc(=O)c(OCC(=O)Nc2ccccc2)co1 (stereo unspecified)	inconclusive [activator, full curve]	–

Compound	Potency	growth rescue (activation)
COc1ccccc1CNC(=O)c1cnc(N2CCCC2)nc1C	inconclusive [activator, partial curve]	–
O=C(c1cccnc1)N1CCN(c2ccc([N+](=O)[O-])cc2Cl)CC1	inconclusive [activator, partial curve]	–
O=S(=O)(NCCC1=CCCCC1)c1cccc2nsnc12	inactive	–
Cc1ccc2c(CC(=O)NCc3ccco3)coc2c1C	inconclusive [activator, partial curve]	–
CCN1CCc2c(C#N)c(N3CCOCC3)nc(NCCO)c2C1	inactive	–
O=C(NCc1ccccc1)c1ncn(Cc2ccccc2)c1C(=O)NCc1ccccc1	inconclusive [activator, partial curve]	–
Cc1cc(C)c(NC(=O)c2ncoc2-c2ccco2)c(C)c1	inconclusive [activator, single point]	–
Cc1ccc(C)c(CN2C(=O)NC3(CCCCCC3)C2=O)c1	active: 22.4 µM	–
CCOc1ccc(-c2nc(CSCC(=O)NCc3ccco3)c(C)o2)cc1	inconclusive [activator, single point]	–
COc1ccccc1N1CCN(S(=O)(=O)c2ccc3nc(-c4ccccc4)[nH]c3c2)CC1	inconclusive [activator, single point]	–
CC(C)N(C(=O)[C@H]1C[C@H](CC(=O)NCC23CC4CC(CC(C4)C2)C3)C(=O)N2CCc3c([nH]c4cc(CCC(=O)N(C)C)ccc34)[C@]12C)C(C)C	inconclusive [activator, partial curve, poor fit]	–
O=C(N/N=C/c1sc(N2CCCCC2)nc1-c1cccs1)c1cccnc1	inconclusive [activator, single point]	–
CC(C)Sc1nc2sc3c(c2c2nnc(SCC(=O)NCc4ccco4)n12)CCCC3	inactive	–
COc1cccc(CN(C)S(=O)(=O)c2ccc3c(c2)OCCO3)c1	inconclusive [activator, partial curve]	–
O=C(C1CCC(Cn2c(=O)c3sccc3n(Cc3ccccc3F)c2=O)CC1)N1CCCCC1 (stereo unspecified)	inconclusive [activator, single point]	–
CCC(C)c1ccc(NC(=O)c2c([N+](=O)[O-])cnn2CC)cc1 (stereo unspecified)	active: 20 µM	–
Cn1cc(SCC(=O)Nc2ccc3c(c2)OCCO3)c2ccccc21	inconclusive [activator, partial curve]	–
CC1CCCCN1S(=O)(=O)c1coc(C(N)=O)c1 (stereo unspecified)	inconclusive [activator, partial curve]	–
C=CCSc1nn2c(=O)c3ccccc3nc2s1	inconclusive [activator, single point]	–
CCCCNC(=O)CN1CCN(Cc2ccc3cc(OC)ccc3c2)CC1	inactive	–
COc1ccccc1C(c1nnnn1Cc1ccco1)N1CCN(c2cccc(C)c2C)CC1 (stereo unspecified)	inconclusive [activator, single point]	–
CCc1cccc(NC(=S)N(CCN(C)C)C(C)c2ccncc2)c1 (stereo unspecified)	inactive	–
COc1ccc(C(=O)N2CCN(c3cccc(Cl)c3)CC2)cc1	inconclusive [activator, single point]	–
Cc1ccc(-c2nc3cccnc3o2)cc1NC(=O)COc1ccc(C(C)(C)C)cc1	inconclusive [activator, partial curve]	–

Compound	Potency	growth rescue (activation)
COc1ccc(NC(=O)/C=C/c2ccccc2)cn1	inconclusive [activator, partial curve]	–
CCCCCCSc1nsc(NC(C)=O)n1	inconclusive [activator, partial curve]	–
COc1ccccc1CNC(=O)CN(CCc1ccccc1)S(C)(=O)=O	inactive	–
CCOC(=O)CNc1c(-c2ccc(F)cc2)nc2cnccn12	inactive	–
CCn1c(CCNC(=O)c2ccc(OC)cc2)nnc1SCc1ccc(Cl)cc1Cl	inconclusive [activator, single point]	–
CC1(C(=O)N2CCCCC2)CCN1C(=O)c1ccccc1CCc1ccccc1 (stereo unspecified)	inconclusive [activator, single point]	–
COc1ccc(-c2ccc(C(=O)Nc3ccc(OC)nc3)c3occc23)c(C)c1	active: 35.5 µM	–
CC1CCN(C(=S)c2ccc([N+](=O)[O-])cc2)CC1	inconclusive [activator, partial curve]	–
CCN(CC)C(=O)c1cc(-c2ccc(Cl)cc2)on1	inconclusive [activator, partial curve]	–
O=C(Nc1ccc2oc(-c3ccncc3)nc2c1)c1ccc([N+](=O)[O-])o1	inconclusive [activator, partial curve]	–
N/C(=N\OC(=O)CCCc1ccccc1)c1ccccc1	inconclusive [activator, single point]	–
COc1ccc(CC(=O)OCC(=O)c2ccc(OC)cc2)cc1	inactive	–
OCCOCCOCCn1c2ccccc2c2ccccc21	inconclusive [activator, single point]	–
Nc1ccc2c(c1)C(=O)c1cc(Cl)c(Cl)cc1-2	inconclusive [activator, single point]	–
CCOC(=O)c1[nH]c2c(c1-c1ccccc1)C(=O)CC(c1ccc(OC)c(OC)c1)C2 (stereo unspecified)	inactive	–
CC(=O)c1ccc(NC(=O)CN(C)S(=O)(=O)c2cccc3nsnc23)cc1	inactive	–
C[C@@H]1CN([C@@H](C)CO)C(=O)CCCn2nncc2CO[C@H]1CN(C)Cc1cccc(C(F)(F)F)c1	inconclusive [activator, partial curve, poor fit]	–
COc1ccc(C(=O)NCc2cc(C)nc3ccccc23)cc1	inactive	–
O=C(NCCC(c1ccccc1)c1ccco1)c1cccs1 (stereo unspecified)	inconclusive [activator, partial curve]	–
Cc1nc2ccccc2c2nc3ccccc3n12	active: 12.6 µM	–
COc1ccc(NC(=O)CCn2c(=O)c3cccn3c3ccccc32)c(OC)c1	active: 22.4 µM	–
CCC1CN(C(=O)Nc2cccc3c2CCCC3)c2ccccc2O1 (stereo unspecified)	inconclusive [activator, single point]	–
COc1ccc(-c2nc(-c3ccncc3)no2)cc1	inconclusive [activator, full curve]	–
